# Data published in PubChem BioAssay AID624296 (National Center for Advancing Translational Sciences (NCATS), 2012).
# About 9,900 (2.8%) of roughly 350,000 compounds were called active. The inconclusive results got no clear call from the source; some entries with a clear call stand among them for comparison. The call rests on the fitted dose curve; in most records, active means well fitted activation curve with a large enough effect; inconclusive means small, poorly fitted or top-dose-only effect; inactive means no such curve, though single readings can be large or run the other way. Potencies of inconclusive entries are left out as doubtful fits.
# Experiment: A quantitative high throughput screen for small molecules that induce DNA re-replication in MCF 10a normal breast cells. Further: nearly all actives have a fitted effect of over 50% in size.
# Conditions: MCF 10A DNA re-replication, Hoechst nuclear intensity, 48 h; series mostly up to 46.1 µM
# Potency means the concentration at half of the fitted maximal effect; tags describe the fitted curve by direction and shape.
row,SMILES,Potency
1,CCCCSc1ncc(C(=O)OCC)c(N)n1,inactive
2,CC1CCc2nc(NC(=O)C3COc4ccccc4O3)sc2C1 (stereo unspecified),inactive
3,COc1ccc(CN2CCN(Cc3cccn3-c3ncccn3)CC2CCO)c(C)c1C (stereo unspecified),inactive
4,Cc1cccc(Nc2c(-c3ccc(O)cc3)nc3ncccn23)c1,"inconclusive [activator, partial curve, poor fit]"
5,O=C(NN=C1CCCCCC1)c1ccncc1,inactive
6,Cc1ccc(NC(=O)CCCc2nc3ccccc3s2)c(O)c1,"inconclusive [activator, single point]"
7,COc1cccc(C(=O)NC2CC(C)(C)Cc3c2cnn3-c2cccc(F)c2)c1OC (stereo unspecified),"inconclusive [activator, partial curve]"
8,COc1ccc(/C=N/NC(=O)c2cccnc2)cc1CN1CCCc2ccccc21,"inconclusive [activator, single point]"
9,Cc1cccc(-c2ccc3c(c2)C2CC3CCN2C(=O)OCc2ccccc2)c1 (stereo unspecified),inactive
10,Cc1ccc([N+](=O)[O-])cc1N(CC(=O)Nc1ccc(S(=O)(=O)Nc2cccc(C(F)(F)F)c2)cc1)S(C)(=O)=O,"inconclusive [activator, single point]"
11,COc1ccc2cc(C)c3nnc(SCC(=O)Nc4nc(-c5ccc(F)cc5)cs4)n3c2c1,"inconclusive [activator, single point]"
12,CN1CCN(Cc2nc3ccccc3c(=O)n2Cc2nc(-c3cccc([N+](=O)[O-])c3)cs2)CC1,inactive
13,COc1ccc(C(=O)CCC(=O)Nc2cccc(Cl)c2)cc1,inactive
14,Cc1nc2ccccc2n1/N=C/c1ccc([N+](=O)[O-])s1,active: 18.4 µM
15,COc1ccc(NC(=O)NNS(=O)(=O)c2ccc(OC)c(OC)c2)c(OC)c1,inactive
16,O=C(Nc1ccccc1-c1nnn(CC(=O)N2CCCc3ccccc32)n1)c1cccc(Cl)c1,"inconclusive [activator, full curve, poor fit]"
17,Cn1c(/C=C(\C#N)C(N)=S)ccc1-c1ccc(Br)cc1,"inconclusive [activator, single point]"
18,COCCCNC(=S)NNC(=O)C1CC1c1ccc(C(C)(C)C)cc1 (stereo unspecified),inactive
19,CCCCNC(=S)N=Nc1c(O)n(Cc2ccccc2)c2ccccc12,"inconclusive [activator, partial curve, poor fit]"
20,C=CCNC(=O)/C(=C/c1cn(-c2ccccc2)nc1-c1cccc([N+](=O)[O-])c1)NC(=O)c1ccccc1,inactive
21,Cc1ccc2c(c1)nnn2C1CCN(CC(=O)NCCc2ccccc2)CC1,inactive
22,CCCOc1ccc(-c2cn3ccccc3n2)cc1[N+](=O)[O-],"inconclusive [activator, partial curve, poor fit]"
23,Cc1cc(C(=O)CSc2nc3ccccc3c(=O)n2C)c(C)n1Cc1ccc2c(c1)OCO2,inactive
24,COc1ccc(CNC(=O)COC(=O)c2ccccc2OCC(=O)Nc2ccc(SC(F)F)cc2)cc1,inactive

row,SMILES,Potency
1,O=C(CNC(=O)c1[nH]cnc1C(=O)N[C@@H](Cc1ccccc1)C(=O)OCc1ccccc1)OCc1ccccc1,"inconclusive [activator, single point]"
2,COc1ccc(NC(=O)c2cccnc2N2CCCC2)cc1,inactive
3,Cc1ccsc1C(=O)N1CC(=O)Nc2ccccc21,"inconclusive [activator, single point]"
4,NS(=O)(=O)c1ccc(N2N=C(c3ccc(Br)cc3)CC2c2ccc(F)cc2)cc1 (stereo unspecified),active: 1.84 µM
5,Cc1cc(C)n(-c2nc(NCC3CCCO3)c3c4c(sc3n2)COC(C)(C)C4)n1 (stereo unspecified),"inconclusive [activator, partial curve, poor fit]"
6,Cc1ccc(CN2CC(C(=O)N3CCN(S(=O)(=O)c4ccccc4)CC3)CC2=O)cc1 (stereo unspecified),"inconclusive [activator, partial curve, poor fit]"
7,O=C(O)CCCCCCCCc1cn(Cc2ccc(C(=O)c3ccccc3)cc2)nn1,"inconclusive [activator, full curve, poor fit]"
8,N#Cc1c(C(F)(F)F)cc(-c2cccs2)nc1SCc1ccc(Cl)nc1,"inconclusive [activator, single point]"
9,CC1CCN(C(=O)CCc2ccc(Oc3cc([N+](=O)[O-])cc([N+](=O)[O-])c3)cc2)CC1,"inconclusive [activator, partial curve, poor fit]"
10,O=C(O)c1ccc2nc(-c3ccccc3)sc2c1,inactive
11,COc1ccc(CNC(=O)C(=O)NCc2ccncc2)cc1,"inconclusive [activator, full curve, poor fit]"
12,CC1CC(C)(C)Nc2ccc(N=O)cc21 (stereo unspecified),active: 23.1 µM
13,COc1ccc(CSc2nc(C)[nH]c2[N+](=O)[O-])cc1[N+](=O)[O-],inactive
14,Cc1ccc2[nH]c(=O)c(CN(CCCN3CCOCC3)C(=O)Nc3cccc(Cl)c3)cc2c1,"inconclusive [activator, partial curve, poor fit]"
15,O=C(COC(=O)CCC(=O)c1cccs1)Nc1cccc(F)c1,inactive
16,CN(Cc1ccc(Cl)s1)C(=O)CCl,"inconclusive [activator, single point]"
17,CCCCOc1ccc(C(=O)Nc2cccc(C)n2)cc1,"inconclusive [activator, partial curve, poor fit]"
18,COc1ccc(OCCn2cc(C=O)c3ccccc32)cc1,"inconclusive [activator, partial curve, poor fit]"
19,O=C(C1CCC1)N1CCN(c2ccc(Cl)cc2)CC1,inactive
20,COc1cccc(N2C(=O)/C(=C\c3cccs3)NC2=S)c1,inactive
21,CC(=O)c1ccc(OCc2cc(C(=O)NCCc3ccc(Cl)cc3)no2)cc1,inactive
22,O=C(COC(=O)Cc1ccc(Br)cc1)Nc1ccc(Cl)cn1,inactive
23,COc1ccc(CSCC(=O)N/N=C/c2ccc(OCC(=O)N3CCCCC3)cc2)cc1,active: 20.6 µM
24,COc1ccc(C)c2sc(NC(=O)CCS(=O)(=O)c3ccccc3)nc12,"inconclusive [activator, single point]"

row,SMILES,Potency
1,COc1ccc(N2CCN(c3nc4ccccc4nc3NS(=O)(=O)c3ccccc3)CC2)cc1,"inconclusive [activator, single point]"
2,FC(F)(F)C(Oc1nc(NC2CCCCC2)nc(N2CCOCC2)n1)C(F)(F)F,"inconclusive [activator, partial curve, poor fit]"
3,O=C(CCN1CCN(C/C=C/c2ccccc2)CC1)Nc1ccccc1F,"inconclusive [activator, single point]"
4,COCCC(=O)N1CCC(Oc2ccc(C(=O)N3CCCCC3CCO)cc2)CC1 (stereo unspecified),inactive
5,O=C(Cc1ccc(S(=O)(=O)N2CCOCC2)s1)N1CCN(S(=O)(=O)c2ccc(Cl)cc2)CC1,"inconclusive [activator, single point]"
6,COc1ccc(CNC(=O)CCS(=O)(=O)c2ccc3c(c2)CCN3C(C)=O)cc1,inactive
7,O=C(NCC1CCCO1)c1ccc([N+](=O)[O-])s1 (stereo unspecified),"inconclusive [activator, full curve, poor fit]"
8,COc1ccc(Cl)cc1C(=O)Nc1nc2ccccc2[nH]1,"inconclusive [activator, single point]"
9,O=C(NC(=S)Nc1ccccc1)c1csnn1,"inconclusive [activator, partial curve, poor fit]"
10,Cc1ccc(NC(=O)c2cccc(S(=O)(=O)N(C)C3CCCCC3)c2)nc1,inactive
11,O=C1CSCN1c1cc(Cl)ccc1Cl,inactive
12,CCOC(=O)c1c(NC(=O)CCCN2CCOCC2)sc2c1CC(C)(C)OC2,"inconclusive [activator, partial curve, poor fit]"
13,COc1ccc(Cl)cc1Nc1ncnc2sc(C)c(S(=O)(=O)N3CCC(C)CC3)c12,"inconclusive [activator, single point]"
14,C/C(=N\NC(=O)c1cccs1)c1ccc2ccccc2c1,"inconclusive [activator, partial curve, poor fit]"
15,CCOC(=O)c1cc2c(ccn2C)n1CC(=O)N(Cc1ccccc1)c1ccc(F)cc1,"inconclusive [activator, single point]"
16,COc1ccccc1-n1cc(C(=O)c2cc(Cl)ccc2O)cc(C#N)c1=O,inactive
17,CC(C)c1ccc(Nc2nnc(SCC(=O)Nc3ncc(S(=O)(=O)c4ccc([N+](=O)[O-])cc4)s3)s2)cc1,"inconclusive [activator, partial curve, poor fit]"
18,CCn1c(SCC(=O)Nc2ccc3c(c2)OCO3)nc2c(c1=O)SC(C)C2 (stereo unspecified),inactive
19,N#C/C(=C/c1ccc(N2CCCCCC2)o1)c1cccc(F)c1,"inconclusive [activator, single point]"
20,CC(C)(C)c1ccc(OCCC(=O)OCC(=O)Nc2cccnc2Cl)cc1,"inconclusive [activator, partial curve, poor fit]"
21,O=C(O)c1ccccc1N1C(=O)C2C3c4ccccc4C(Br)(c4ccccc43)C2C1=O (stereo unspecified),inactive
22,COCCNC(=O)C(c1ccc(C)cc1)N(Cc1ccco1)C(=O)CCC(=O)Nc1ccccn1 (stereo unspecified),inactive
23,CCCCN1C(=O)/C(=C/C=C2/C=Cc3ccccc3N2CC)SC1=S,"inconclusive [activator, single point]"
